This assay deals with IL-21R expressed on the surface of HuT78 cells (UniProt Q9HBE5 20-538, limits assumed). The assay can be described thus: cell-based or functional assay.
UniProt Q9HBE5, sequence (Q9HBE5 20-538 limits assumed): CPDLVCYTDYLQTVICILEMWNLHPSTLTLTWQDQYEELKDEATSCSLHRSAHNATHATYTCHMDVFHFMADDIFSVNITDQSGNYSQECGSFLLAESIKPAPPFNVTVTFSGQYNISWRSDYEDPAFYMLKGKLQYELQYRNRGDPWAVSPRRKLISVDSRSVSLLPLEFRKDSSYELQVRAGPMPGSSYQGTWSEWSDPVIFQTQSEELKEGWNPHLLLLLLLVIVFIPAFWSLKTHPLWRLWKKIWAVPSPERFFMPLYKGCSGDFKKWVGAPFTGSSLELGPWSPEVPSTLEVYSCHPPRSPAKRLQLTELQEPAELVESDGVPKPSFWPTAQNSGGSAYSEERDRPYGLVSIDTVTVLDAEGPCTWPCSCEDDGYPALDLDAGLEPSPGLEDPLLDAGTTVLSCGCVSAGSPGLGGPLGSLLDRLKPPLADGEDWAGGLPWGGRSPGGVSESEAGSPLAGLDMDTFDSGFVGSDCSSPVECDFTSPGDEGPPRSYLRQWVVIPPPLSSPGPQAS

B1: m111-Fc (Fc fusion)
chain: QGQDRHMIRMRQLIRWVDQLKNYVNDLVPEFLPAPEDVETNCEWSAFSCFQKAQLKSANTGNNERIINVLIKYLKRKPEGGGSEGGGSLTCPSCDSYEKKPPKEFLERFKSLLQKMIHQHLSSRTHGSEDS[human IgG1 Fc with changes not shown]
Take B1: the “pSTAT3 activation(EC50, nM)” value was 220 nM.

B2: m109-Fc (Fc fusion)
chain: QGQDRHMIRMRQLIKWVDQLKNYVNDLVPEFLPAPEDVETNCEWSAFSCFQKAQLKSANTGNNERIINVLIKKLKFKPESTNAGRRQKHRLTCPSCDSYEKKPPKEFLERFKSLLQKMIHQHLSSRTHGSEDS[human IgG1 Fc with changes not shown]
Turning to B2, the “pSTAT3 activation(EC50, nM)” value came to 792 nM.

B3: m110-Fc (Fc fusion)
chain: QGQDRHMIRMRQLIRWVDQLKNYVNDLVPEFLPAPEDVETNCEWSAFSCFQKAQLKSANTGNNERIINVLIKKLKFKPESTNAGRRQKHRLTCPSCDSYEKKPPKEFLERFKSLLQKMIHQHLSSRTHGSEDS[human IgG1 Fc with changes not shown]
For B3, the “pSTAT3 activation(EC50, nM)” value amounted to 840 nM.

The record behind these values is patent US20260258106A1 (BEIJING NEOX BIOTECH, published 2026).
